# In the supplement of paper PMC9446081:
# The campaign covered roughly 39,000 compounds. About 220 (0.56%) showed activity. The list shows a part of the results.
# Tested on: Escherichia coli K-12 BW25113
# Experiment: relative growth (OD600 normalised to plate interquartile mean) (fraction); higher = less growth inhibition, active = 0.2 or less
# Settings: 50 µM; LB; incubation time: overnight (16-24 h)
# 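Also: static incubation at 37 °C against the wild-type strain, values averaged over two biological replicates.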
row,SMILES,relative growth
1,C[C@@H]1CN([C@H](C)CO)C(=O)Cc2cc(NC(=O)Nc3ccc(F)cc3)ccc2O[C@@H]1CN(C)C(=O)Nc1cccc2ccccc12,inactive: 0.994
2,Cc1ccc(S(=O)(=O)N(C)C[C@@H]2Oc3ccc(NS(=O)(=O)c4ccc(F)cc4)cc3C(=O)N([C@@H](C)CO)C[C@H]2C)cc1,inactive: 0.996
3,C[C@H](CO)N1C[C@H](C)[C@H](CN(C)Cc2ccncc2)Oc2ccc(NS(=O)(=O)c3ccccc3)cc2CC1=O,inactive: 1.03
4,CCc1cn([C@H]2C[C@H](O)[C@@H](CO)O2)c(=O)[nH]c1=O,inactive: 0.887
5,C[C@@H]1CCCCO[C@@H](CN(C)CC2CCCCC2)[C@H](C)CN([C@H](C)CO)C(=O)c2cc(NS(=O)(=O)c3ccc(F)cc3)ccc2O1,inactive: 0.99
6,O=C(C[C@@H]1CC[C@H]2[C@@H](COC[C@H](O)CN2C(=O)c2ccccn2)O1)NC1CCC1,inactive: 0.986
7,CC(C)(C)NCC(O)COc1cccc2c1CC(O)C(O)C2 (centres undefined),inactive: 1.04
8,CO[C@@H]1CN(C)C(=O)c2cc(NS(=O)(=O)c3ccccc3C)ccc2OC[C@@H](C)N(S(C)(=O)=O)C[C@H]1C,inactive: 1.02
9,C[C@@H]1CCCCO[C@@H](CN(C)S(C)(=O)=O)[C@H](C)CN([C@@H](C)CO)C(=O)c2cc(N(C)C)ccc2O1,inactive: 0.983
10,C[C@@H]1C=CNN1C(=O)c1cccnc1,inactive: 0.998
11,C[C@H]1CN([C@@H](C)CO)C(=O)c2c(c3ccccc3n2C)-c2ccccc2CO[C@H]1CN(C)Cc1ccc(-c2ccccc2)cc1,inactive: 1.02
12,O=C(C[C@H]1C[C@H]2c3cc(NS(=O)(=O)c4ccc(F)cc4)ccc3O[C@H]2[C@H](CO)O1)NCc1ccccn1,inactive: 0.998
13,C[C@@H]1CN([C@@H](C)CO)C(=O)c2c(c3ccccc3n2C)-c2ccccc2CO[C@H]1CN(C)C(=O)Nc1cccc(Cl)c1Cl,inactive: 1.03
14,Cc1noc(C)c1S(=O)(=O)Nc1ccc2c(c1)C(=O)N([C@@H](C)CO)C[C@@H](C)[C@@H](CN(C)Cc1ccccc1)O2,inactive: 1
15,C[C@H](CO)N1C[C@H](C)[C@H](CN(C)C(=O)Nc2cccc3ccccc23)Oc2ccc(NC(=O)Nc3ccc(C(F)(F)F)cc3)cc2C1=O,inactive: 1.01
16,O=C1O[C@H](c2ccccc2)[C@H](c2ccccc2)N2[C@H]1[C@@H](C(=O)NC[C@@H](O)c1ccccc1)[C@]1(C(=O)Nc3ccc(C#CC4=CCCCC4)cc31)[C@H]2c1ccccc1OCCO,inactive: 1.04
17,C[C@H](CO)N1C[C@H](C)[C@H](CN(C)Cc2ccncc2)Oc2ncc(C#Cc3cccc(F)c3)cc2C1=O,inactive: 0.985
18,C[C@@H]1CN([C@@H](C)CO)C(=O)c2cc(-c3cccc(C#N)c3)cnc2O[C@@H]1CN(C)C(=O)C1CCOCC1,inactive: 0.995
19,COc1ccc(S(N)(=O)=O)cc1OC,inactive: 1.02
20,COc1ccc(NC(=O)Nc2ccc3c(c2)CC(=O)N([C@@H](C)CO)C[C@@H](C)[C@@H](CN(C)CC2CCCCC2)O3)cc1,inactive: 0.982
21,Cn1c(=O)[nH]c2nc[nH]c2c1=O,inactive: 1.02
22,C[C@@H]1CCCCO[C@@H](CN(C)C(=O)NC2CCCCC2)[C@@H](C)CN([C@H](C)CO)C(=O)c2cc(NC(=O)Nc3cccc4ccccc34)ccc2O1,inactive: 1.05

row,SMILES,relative growth
1,Cc1noc(C)c1S(=O)(=O)N(C)C[C@@H]1Oc2ccc(N(C)C)cc2CC(=O)N([C@@H](C)CO)C[C@@H]1C,inactive: 1.04
2,C[C@H](CO)N1C[C@H](C)[C@@H](CN(C)C(=O)Cc2ccccn2)Oc2cc(C#Cc3ccccc3)ccc2S1(=O)=O,inactive: 1
3,C[C@@H]1CN([C@H](C)CO)C(=O)c2cc(NC(=O)Nc3ccc(C(F)(F)F)cc3)ccc2O[C@H]1CN(C)Cc1ccc2c(c1)OCO2,inactive: 0.763
4,C[C@H]1CN([C@@H](C)CO)C(=O)Cc2cc(NC(=O)Cn3cnnn3)ccc2O[C@H]1CN(C)CC1CC1,inactive: 0.983
5,C[C@H]1CN([C@@H](C)CO)S(=O)(=O)c2ccc(C#Cc3ccccc3)cc2O[C@H]1CN(C)S(C)(=O)=O,inactive: 1.02
6,CCS(=O)(=O)NCC[C@@H]1CC[C@@H](NS(=O)(=O)c2cccc(F)c2)[C@H](CO)O1,inactive: 0.959
7,COc1ccc(S(=O)(=O)N(C)C[C@H]2Oc3ccc(N(C)C)cc3C(=O)N([C@H](C)CO)C[C@H]2C)cc1,inactive: 1.01
8,CC(C)NC(=O)N(C)C[C@H]1OCCCC[C@@H](C)Oc2ccc(NC(=O)C3CCCCC3)cc2C(=O)N([C@H](C)CO)C[C@@H]1C,inactive: 1.01
9,O=C(c1cccnc1)N1CCOCC1,inactive: 0.917
10,OCC(S)CS (centres undefined),inactive: 1.08
11,CN(C)CC(=O)N1[C@@H](CO)[C@H](c2ccc(C3=CCCC3)cc2)C12CN(S(=O)(=O)Cc1ccccc1)C2,inactive: 0.975
12,COC(=O)[C@H](Cc1ccccc1)N1CC(/C=C/C2CC2)=C[C@@H]1[C@@H](O)CCn1cc(-c2ccc(C(=O)NO)s2)nn1,inactive: 0.999
13,COCC(=O)Nc1ccc2c(c1)[C@H]1C[C@@H](CC(=O)N3CCOCC3)O[C@@H](CO)[C@H]1O2,inactive: 0.992
14,COc1ccc(S(=O)(=O)N(C)C[C@H]2Oc3ccc(NS(=O)(=O)c4cccs4)cc3CC(=O)N([C@@H](C)CO)C[C@H]2C)cc1,inactive: 1.01
15,C[C@@H]1CN([C@H](C)CO)C(=O)Cc2cc(NC(=O)Cc3ccccc3)ccc2O[C@@H]1CN(C)S(=O)(=O)c1cccs1,inactive: 1.01
16,CC(C)=CC1C(C(=O)O)C1(C)C (centres undefined),inactive: 0.91
17,C[C@H]1CN([C@@H](C)CO)C(=O)c2cc(NC(=O)c3ccncc3)ccc2O[C@@H]1CN(C)S(=O)(=O)c1cccs1,inactive: 1.01
18,C[C@@H]1CCCCO[C@@H](CN(C)Cc2ccccc2)[C@H](C)CN([C@H](C)CO)C(=O)c2cc(NC(=O)Nc3ccc4c(c3)OCO4)ccc2O1,inactive: 1.04
19,C[C@@H]1CN([C@H](C)CO)C(=O)c2cc(NC(=O)CCC(F)(F)F)ccc2O[C@@H](C)CCCCO[C@@H]1CN(C)CC1CCCCC1,inactive: 0.98
20,CN(C)C(=O)C[C@@H]1C=C[C@@H](NC(=O)C2CCOCC2)[C@H](CO)O1,inactive: 0.983
21,C=CCN1CCC[C@@H]1C(=O)O,inactive: 1.03
22,CN(C)C(=O)C[C@H]1C=C[C@H](NC(=O)C2CC2)[C@H](CO)O1,inactive: 0.959

row,SMILES,relative growth
1,COc1ccc(S(=O)(=O)Nc2ccc3c(c2)OC[C@@H](C)N(C(=O)NC(C)C)C[C@@H](C)[C@H](OC)CN(C)C3=O)cc1,inactive: 0.98
2,Cc1cc(NC(=O)CCCC(=O)O)n(C)n1,inactive: 1.04
3,CNC(=O)Cn1c(=O)c2c(N3CCN(C(=O)C4CC4)CC3)ccnc2n(C)c1=O,inactive: 0.996
4,COc1ccc(NC(=O)N(C)C[C@H]2OCCCC[C@H](C)Oc3ccc(NC(=O)NC4CCCCC4)cc3C(=O)N([C@H](C)CO)C[C@@H]2C)cc1,inactive: 1.01
5,COc1ccc(S(=O)(=O)N(C)C[C@H]2Oc3c(NC(=O)c4cc(C)nn4C)cccc3C(=O)N([C@@H](C)CO)C[C@H]2C)cc1,inactive: 0.968
6,CC(C)NC(=O)N1Cc2cc(C(=O)NC3Cc4ccccc4C3)nc(-c3cccc(-c4cccnc4)c3)c2[C@@H]1CCO,inactive: 1.02
7,Cc1noc(C)c1NC(=O)N(C)C[C@@H]1Oc2ccc(NS(=O)(=O)c3cccs3)cc2CC(=O)N([C@H](C)CO)C[C@H]1C,inactive: 1.02
8,OCc1cn(Cc2ccccc2)nn1,inactive: 1.01
9,C[C@@H]1CN([C@@H](C)CO)C(=O)c2cc(NC(=O)C3CC3)ccc2O[C@@H]1CN(C)C(=O)Nc1ccc2c(c1)OCO2,inactive: 0.987
10,C[C@@H]1CCCCO[C@@H](CN(C)S(=O)(=O)c2ccccc2)[C@@H](C)CN([C@H](C)CO)C(=O)c2cc(NS(=O)(=O)c3ccc(Cl)cc3)ccc2O1,inactive: 1.02
11,O=C(CCCCC(=O)N/N=C/[C@H](O)[C@@H](O)[C@@H](O)[C@H](O)C(=O)O)NO,inactive: 1.01
12,COc1ccc(NC(=O)Nc2ccc3c(c2)C(=O)N([C@H](C)CO)C[C@H](C)[C@H](CN(C)C(=O)NC2CCCCC2)OCCCC[C@H](C)O3)cc1,inactive: 1
13,COc1ccc(S(=O)(=O)N(C)C[C@H]2Oc3ccc(NC(=O)CCCN(C)C)cc3CC(=O)N([C@H](C)CO)C[C@@H]2C)cc1,inactive: 1
14,C[C@H](CO)N1C[C@H](C)[C@@H](CN(C)Cc2ccc(C(=O)O)cc2)Oc2c(NC(=O)c3ccncc3)cccc2C1=O,inactive: 0.968
15,C[C@@H]1CN([C@@H](C)CO)C(=O)c2cc(NC(=O)Cc3ccccc3)ccc2O[C@@H]1CN(C)C(=O)Nc1ccc(C(F)(F)F)cc1,inactive: 0.967
16,C[C@@H]1CCCCO[C@@H](CN(C)S(=O)(=O)c2ccc(F)cc2)[C@@H](C)CN([C@H](C)CO)C(=O)c2cc(NC(=O)CCC(F)(F)F)ccc2O1,inactive: 0.966
17,CNC[C@@H]1Oc2ccc(NS(=O)(=O)c3cn(C)cn3)cc2C(=O)N([C@H](C)CO)C[C@H]1C,inactive: 1
18,COCCCNC(=O)[C@@]1(Sc2ccc(C)cc2)CC(=O)N(Cc2ccccc2Cl)[C@@H]1c1ccc(CO)cc1,inactive: 1.01
19,C[C@H]1CN([C@@H](C)CO)C(=O)Cc2cc(NC(=O)CCN3CCOCC3)ccc2O[C@@H]1CN(C)S(=O)(=O)c1ccc(F)cc1,inactive: 0.937
20,O=C(C[C@H]1CC[C@@H]2[C@H](COC[C@H](O)CN2S(=O)(=O)c2ccc(Oc3ccccc3)cc2)O1)NCCN1CCCCC1,inactive: 1.03
